# Experimental data as given in the supplement of paper PMC8728848.
# This is one part of the list.
# B1: PX14367B-bvu-516-23-516 (Bacteroides vulgatus) (protein)
# chain: LDTIPTTYVDAGSVFGKTGDAEKVLNGGWNYLMETFNSYANPGYGAMLRANDAMGSDVVLNSKYGFRTHNEFSAIYGKGGTNTLSWLLAYRVINDCNGVLDNIDAAEGTQADRNRIKGQALALRGFLYLHLASCYSFAIDKDPDAVCAPIYTQSTDETIAAEGKPASSVSEVYAQSINDLEEALELIPETYVRDAKHKIDNEVVLGILSRACLYARQWEKAKTYSDKLLAKDNYLMTESEYKAGFNSVDNKEWIWGHAQTNDQSNASYQFHYLDTTTKGSYYYSFNVDPYFRDLFEDGDYRKEMLFWATDPGADVESAAYVWMRNSKFRFRDIENQLGDIVLMRVAEIYLINAEAKAHLNDPDAINKLNDLKTARGAKTIHTNLSQQDLLETIWLERRKELWGEGFSLIDIIRNQQTVVRNAYPEGPIDYIYTDENGQTHTLKKKTQGHRFFNFPDKSAFCPNSKYYLYRITDSEELANKNLYKDHPKLSIYTK
# Experiments:
# Test in all cases: glycan array binding signal (z-score within array); higher = stronger binding
# Conditions in all cases: glycan notation: IUPAC condensed, linker removed
# [1] = target: Neu5Ac(a2-6)GlcNAc(b1-4)GlcNAc(b1-4)GlcNAc
# Outline: (§1)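 Columns mapping to the same glycan were averaged after glycan names were converted to IUPAC-condensed notation. The data come from 3228 arrays in the Consortium for Functional Glycomics database, limited to those with an available protein sequence. Binding is reported as a within-array Z-score averaged across arrays of one protein sequence and across linkers.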
# [2] = target: Neu5Ac(a2-8)Neu5Ac
# Outline: as §1
# [3] = target: Neu5Ac(a2-8)Neu5Ac(a2-3)Gal(b1-3)GalNAc(b1-4)[Neu5Ac(a2-3)]Gal(b1-4)Glc
# Outline: as §1
# [4] = target: Neu5Ac(a2-8)Neu5Ac(a2-3)Gal(b1-3)GalNAc(b1-4)[Neu5Ac(a2-8)Neu5Ac(a2-3)]Gal(b1-4)Glc
# Outline: as §1
# [5] = target: Neu5Ac(a2-8)Neu5Ac(a2-3)Gal(b1-4)Glc
# Outline: as §1
# [6] = target: Neu5Ac(a2-8)Neu5Ac(a2-3)Gal(b1-4)GlcNAc
# Outline: as §1
# [7] = target: Neu5Ac(a2-8)Neu5Ac(a2-3)[Gal(b1-3)GalNAc(b1-4)]Gal(b1-4)Glc
# Outline: as §1
# [8] = target: Neu5Ac(a2-8)Neu5Ac(a2-3)[GalNAc(b1-4)]Gal(b1-4)Glc
# Outline: as §1
# [9] = target: Neu5Ac(a2-8)Neu5Ac(a2-8)Neu5Ac
# Outline: as §1
# [10] = target: Neu5Ac(a2-8)Neu5Ac(a2-8)Neu5Ac(a2-3)Gal(b1-4)Glc
# Outline: as §1
# [11] = target: Neu5Ac(a2-8)Neu5Ac(a2-8)Neu5Ac(a2-3)[Gal(b1-3)GalNAc(b1-4)]Gal(b1-4)Glc
# Outline: as §1
# [12] = target: Neu5Ac(a2-8)Neu5Ac(a2-8)Neu5Ac(a2-3)[GalNAc(b1-4)]Gal(b1-4)Glc
# Outline: as §1
# [13] = target: Neu5Ac(a2-8)Neu5Ac(a2-8)Neu5Ac(a2-8)Neu5Ac(a2-3)[GalNAc(b1-4)]Gal(b1-4)Glc
# Outline: as §1
# [14] = target: Neu5Ac(a2-8)Neu5Gc(a2-3)Gal(b1-4)GlcNAc
# Outline: as §1
# [15] = target: Neu5Ac(b2-6)Gal(b1-4)GlcNAc
# Outline: as §1
# [16] = target: Neu5Ac(b2-6)GalNAc
# Outline: as §1
# [17] = target: Neu5Ac9Ac(a2-3)Gal(b1-3)GlcNAc
# Outline: as §1
# [18] = target: Neu5Ac9Ac(a2-3)Gal(b1-4)GlcNAc
# Outline: as §1
# [19] = target: Neu5Ac9Ac(a2-6)Gal(b1-4)GlcNAc
# Outline: as §1
# [20] = target: Neu5Gc(a2-3)Gal(b1-3)GlcNAc
# Outline: as §1
# [21] = target: Neu5Gc(a2-3)Gal(b1-3)[Fuc(a1-4)]GlcNAc
# Outline: as §1
# [22] = target: Neu5Gc(a2-3)Gal(b1-4)Glc
# Outline: as §1
# [23] = target: Neu5Gc(a2-3)Gal(b1-4)GlcNAc
# Outline: as §1
# [24] = target: Neu5Gc(a2-3)Gal(b1-4)GlcNAc(b1-3)Gal(b1-4)GlcNAc(b1-2)Man(a1-3)[Neu5Gc(a2-3)Gal(b1-4)GlcNAc(b1-3)Gal(b1-4)GlcNAc(b1-2)Man(a1-6)]Man(b1-4)GlcNAc(b1-4)GlcNAc
# Outline: as §1
# [25] = target: Neu5Gc(a2-3)Gal(b1-4)[Fuc(a1-3)]GlcNAc
# Outline: as §1
# [26] = target: Neu5Gc(a2-6)Gal(b1-4)GlcNAc
# Outline: as §1
# [27] = target: Neu5Gc(a2-6)GalNAc
# Outline: as §1
# [28] = target: Neu5Gc(a2-8)Neu5Ac(a2-3)Gal(b1-4)GlcNAc
# Outline: as §1
# [29] = target: Neu5Gc(a2-8)Neu5Gc(a2-3)Gal(b1-4)GlcNAc
# Outline: as §1
# [30] = target: Neu5Gc(a2-8)Neu5Gc(a2-3)Gal(b1-4)GlcNAc(b1-3)Gal(b1-4)GlcNAc
# Outline: as §1
# [31] = target: Neu5Gc(a2-8)Neu5Gc(a2-6)Gal(b1-4)GlcNAc
# Outline: as §1
# [32] = target: Neu5Gc(b2-6)Gal(b1-4)GlcNAc
# Outline: as §1
binder,measurement,setting,value
B1,glycan array binding signal (z-score),[1],-0.141
same,glycan array binding signal (z-score),[2],-0.346
same,glycan array binding signal (z-score),[3],-0.208
same,glycan array binding signal (z-score),[4],-0.393
same,glycan array binding signal (z-score),[5],-0.365
same,glycan array binding signal (z-score),[6],-0.353
same,glycan array binding signal (z-score),[7],-0.337
same,glycan array binding signal (z-score),[8],0.572
same,glycan array binding signal (z-score),[9],-0.342
same,glycan array binding signal (z-score),[10],-0.319
same,glycan array binding signal (z-score),[11],-0.208
same,glycan array binding signal (z-score),[12],1.71
same,glycan array binding signal (z-score),[13],0.233
same,glycan array binding signal (z-score),[14],2.09
same,glycan array binding signal (z-score),[15],-0.278
same,glycan array binding signal (z-score),[16],-0.322
same,glycan array binding signal (z-score),[17],-0.261
same,glycan array binding signal (z-score),[18],-0.352
same,glycan array binding signal (z-score),[19],-0.359
same,glycan array binding signal (z-score),[20],-0.306
same,glycan array binding signal (z-score),[21],-0.333
same,glycan array binding signal (z-score),[22],-0.273
same,glycan array binding signal (z-score),[23],-0.211
same,glycan array binding signal (z-score),[24],-0.208
same,glycan array binding signal (z-score),[25],-0.344
same,glycan array binding signal (z-score),[26],-0.141
same,glycan array binding signal (z-score),[27],-0.272
same,glycan array binding signal (z-score),[28],-0.243
same,glycan array binding signal (z-score),[29],-0.3
same,glycan array binding signal (z-score),[30],-0.207
same,glycan array binding signal (z-score),[31],-0.3
same,glycan array binding signal (z-score),[32],0.617
